Experimental data reported in the supplement of paper PMC3334620.
Over roughly 33,000 sequences, “E-score (-0.5 to 0.5)” has its median near -0.013; the highest 2% begin near 0.3. This is one part of the list.

target: T1, Msn1 (UniProt P22148); test: PBM E-score (8-mer binding enrichment) (E-score (-0.5 to 0.5)); higher = stronger / more preferred TF binding; most listed sequences are background and not binding sites; details: protein concentration: 200 nM; construct: GST-full length
T1 sequence: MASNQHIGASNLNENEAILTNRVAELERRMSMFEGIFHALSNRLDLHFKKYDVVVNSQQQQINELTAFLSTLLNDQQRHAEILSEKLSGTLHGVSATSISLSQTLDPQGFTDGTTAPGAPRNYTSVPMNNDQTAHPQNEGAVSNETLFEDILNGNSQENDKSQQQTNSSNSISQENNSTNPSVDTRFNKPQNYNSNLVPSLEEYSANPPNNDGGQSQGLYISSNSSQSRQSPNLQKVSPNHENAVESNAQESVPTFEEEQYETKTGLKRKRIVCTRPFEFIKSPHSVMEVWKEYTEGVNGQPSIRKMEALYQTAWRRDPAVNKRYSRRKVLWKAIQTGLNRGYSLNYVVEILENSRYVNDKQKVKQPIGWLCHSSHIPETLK
Method in brief: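 PURExpress in vitro transcription/translation supplied GST-tagged yeast transcription factors, either full-length or DNA-binding domain. Applied at about 100-200 nM to universal all-10-mer Agilent arrays double-stranded by primer extension, the bound protein was detected with fluorescent anti-GST. E-scores, modified Wilcoxon-Mann-Whitney statistics, were given by the Universal PBM Analysis Suite to ungapped eight-base words pooled with their reverse complements after masliner normalisation.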

Sequence | PBM E-score
CGACGCCA | -0.267
AGTGTCCA | 0.219
ACCTCGAT | 0.15
AAGACAGG | 0.0873
CTTTATGA | 0.0103
GAGAGTCC | -0.215
TCACTAAA | 0.156
CGACTAAA | 0.033
AGCACAGG | -0.0335
ATCACGAA | -0.00412
AAATAAAG | 0.086
GACAGTTA | 0.163
AGATCACG | -0.0191
AGAACTGC | -0.0166
TCCGCGAA | 0.149
ACCTAGAC | -0.00118
CAGGTCCG | -0.00597
CCGGTCCA | -0.199
AGCTTAGG | -0.166
AGGTCCCA | -0.081
CCAGGTGC | -0.205
AGTAGGTC | -0.148
CGGGGGAA | -0.274
AGTAGGAA | -0.0575
CACGTTTA | -0.053

Sequence | PBM E-score
CTCACCTA | -0.062
GTGAACCA | 0.0722
TACTCCTA | -0.251
GGTGTGCA | -0.214
CTAGTTCC | 0.11
CTCCAAAC | -0.0642
CGAAGGTC | 0.00281
ATCGGGGG | -0.223
ATTGGCTC | 0.0719
ACGCCCTC | -0.117
GAATACAA | 0.174
GCGAAAGA | -0.0896
AGCGAAAT | -0.116
CGTTGCGC | -0.0291
GACAAAAA | 0.466
ATTCACTC | -0.0244
AAAACCAA | 0.0961
ACTGTTCT | 0.0566
CCTACGTC | -0.064
ATGAATTA | 0.0142
CATTAACC | 0.11
ATCAGTCG | 0.227
CATTCCCG | 0.0349
ATCTATGG | -0.177
AATGGGTG | -0.0072

Sequence | PBM E-score
ATACTTGG | -0.113
GGGGAGTA | -0.154
AAAGGCCG | -0.00669
GTGTCAAA | 0.096
ACGAGACA | 0.275
ATTTCAAG | 0.145
GGCAGTAC | 0.0828
CCATTGGG | -0.142
GTATACAA | 0.176
GCGCATCC | -0.134
AAGAGAGA | -0.249
GCCGGTAC | 0.0172
ACATGTCC | 0.48
CAGTACAA | 0.262
AAAAGCTT | 0.0152
GTACGGGA | -0.113
AATCTCAC | -0.161
CAGTGATA | 0.0852
CATCCTCA | -0.111
AATTCCAG | 0.032
AATTTAAG | 0.013
GTTCACGA | 0.0786
AAGATTCT | -0.14
GGATGTAC | 0.00429
CAGTTCTA | 0.0716

Sequence | PBM E-score
CTCTACAG | -0.108
ATAGCTAA | -0.195
ATGGCTAA | 0.0228
AAACGCGG | 0.188
ACTAGGAA | -0.026
ATCTCCCG | -0.12
CGTTAGTC | 0.0467
AATTAGGT | 0.0808
CGGACGTA | 0.0131
CCGCCGAC | -0.125
GCAAATGC | -0.113
ATCGAATC | 0.0784
ATTAAGCC | -0.0726
CTCTGAAA | 0.0529
AGCGACCA | 0.0404
CCGCCCGG | -0.125
GAGCAGTA | 0.0147
CATCTATA | -0.0122
AATTATGC | 0.119
GCCTCAGC | -0.159
TGAGTCAA | 0.102
AGCCAGCA | -0.153
CTACTTTA | 0.00684
CTCGTGTC | 0.232
AACGGTAC | 0.191

Sequence | PBM E-score
AATGATCA | -0.0264
GCATTCGC | -0.202
CCTGCCCC | -0.237
CCACTTAG | -0.0135
AACGCTCA | -0.0888
CTATTATC | 0.104
CTCTAAGA | 0.15
GACTCAAA | 0.0675
CAATCTGC | 0.045
GATGAGTA | -0.00618
CAGCGTCC | 0.0415
CAAACACC | -0.00246
ATTCCGGC | -0.0277
GTAGGGAA | -0.0402
GTGGCTGA | -0.0321
ACAGCTTC | -0.111
GTCTTACA | 0.0277
GAATCTTA | 0.172
ATAAGTGC | 0.0659
CAAAACCA | 0.16
GTCTCAAA | 0.234
GATTCACA | -0.117
AAAACCTG | 0.0428
CGTCCTGA | 0.102
CCCTCGTC | -0.129

Sequence | PBM E-score
CTCAAAAC | 0.0824
CAGTTTAG | 0.0485
CGGGATGA | -0.123
CAAACCTC | -0.244
GAACTGTA | 0.0707
CTGTCAAC | 0.101
CTGCTCAC | -0.139
CAAATAGG | -0.00081
GGCATCAA | -0.203
CCATCACG | -0.0678
AGACTTGG | -0.143
ACACGACC | 0.0198
GTAGTGCA | -0.0542
AACTAACT | 0.052
ATAGTTCC | 0.0925
GCCGGTAA | 0.146
CCGGCCTC | -0.233
CATCTCGA | 0.149
TCAAAAGA | -0.0225
GCAGAACC | -0.134
CAAATTCG | 0.0807
ACCTGCGA | -0.101
TAGCTCGA | -0.0362
AATTTGTA | 0.28
CCTTCTGC | -0.234

Sequence | PBM E-score
AGGAAACA | 0.205
AGGATAAA | 0.18
AATTCGCG | 0.0725
ACCAACGC | 0.00353
CTGATGGC | -0.0801
ATTGTTAG | 0.145
GTATTCTA | 0.112
AATCAGCA | 0.106
ACAACATA | 0.235
GACGACCA | -0.121
AGACATCC | 0.328
AGCCATAA | 0.00903
GAGACTTA | 0.0587
CTCCATGA | 0.00661
AAGCGTAA | -0.0351
TCAAACGA | 0.00197
GACATATA | 0.448
TACTGCGA | -0.1
CACGGACA | 0.455
AGGCCCCT | -0.293
CATTTTAC | 0.287
ATTCATTC | 0.138
